Experimental data: PMC11864811
No constants are given. Whether binding was seen depends on the method and setting. Binding seen in cells or lysates may run through a third protein. Some entries that bind do so weakly or less than the wild type.

Chains of the proteins cited; added tags and fusions are not shown.
UniProt P09874: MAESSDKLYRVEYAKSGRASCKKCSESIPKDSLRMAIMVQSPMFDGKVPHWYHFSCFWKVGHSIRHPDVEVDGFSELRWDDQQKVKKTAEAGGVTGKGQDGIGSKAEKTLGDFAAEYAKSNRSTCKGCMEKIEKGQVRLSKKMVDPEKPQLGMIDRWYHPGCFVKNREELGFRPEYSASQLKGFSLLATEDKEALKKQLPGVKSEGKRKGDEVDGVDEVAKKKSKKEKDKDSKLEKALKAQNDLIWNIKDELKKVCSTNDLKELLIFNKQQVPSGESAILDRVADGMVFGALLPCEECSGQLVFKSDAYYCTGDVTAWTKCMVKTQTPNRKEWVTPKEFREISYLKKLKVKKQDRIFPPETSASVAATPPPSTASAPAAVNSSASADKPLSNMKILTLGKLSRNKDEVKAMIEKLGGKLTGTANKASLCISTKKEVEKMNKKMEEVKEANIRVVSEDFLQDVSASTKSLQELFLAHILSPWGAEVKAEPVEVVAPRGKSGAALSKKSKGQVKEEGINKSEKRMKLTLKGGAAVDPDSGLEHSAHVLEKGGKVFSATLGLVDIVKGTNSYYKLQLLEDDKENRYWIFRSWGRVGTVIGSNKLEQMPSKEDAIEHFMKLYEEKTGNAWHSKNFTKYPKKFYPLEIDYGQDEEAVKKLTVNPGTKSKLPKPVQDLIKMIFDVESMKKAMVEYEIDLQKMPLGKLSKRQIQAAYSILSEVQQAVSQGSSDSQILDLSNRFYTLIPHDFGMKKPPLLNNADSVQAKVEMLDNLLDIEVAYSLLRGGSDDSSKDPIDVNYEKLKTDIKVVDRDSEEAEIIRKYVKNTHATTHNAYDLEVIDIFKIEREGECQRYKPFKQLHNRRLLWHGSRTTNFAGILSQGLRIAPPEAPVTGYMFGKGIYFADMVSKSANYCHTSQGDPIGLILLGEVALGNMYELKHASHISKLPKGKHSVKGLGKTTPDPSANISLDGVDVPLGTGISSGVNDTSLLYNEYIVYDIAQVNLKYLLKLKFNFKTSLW
UniProt O15527: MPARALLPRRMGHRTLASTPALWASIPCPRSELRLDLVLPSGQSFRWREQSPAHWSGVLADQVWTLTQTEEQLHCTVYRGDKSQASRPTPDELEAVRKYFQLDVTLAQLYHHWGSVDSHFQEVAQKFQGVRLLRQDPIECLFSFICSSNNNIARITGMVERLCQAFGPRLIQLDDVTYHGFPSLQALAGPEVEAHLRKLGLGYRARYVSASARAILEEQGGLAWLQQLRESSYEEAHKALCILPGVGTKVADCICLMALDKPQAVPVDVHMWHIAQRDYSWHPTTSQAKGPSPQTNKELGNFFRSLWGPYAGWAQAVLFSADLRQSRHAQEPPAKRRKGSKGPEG
UniProt P18887: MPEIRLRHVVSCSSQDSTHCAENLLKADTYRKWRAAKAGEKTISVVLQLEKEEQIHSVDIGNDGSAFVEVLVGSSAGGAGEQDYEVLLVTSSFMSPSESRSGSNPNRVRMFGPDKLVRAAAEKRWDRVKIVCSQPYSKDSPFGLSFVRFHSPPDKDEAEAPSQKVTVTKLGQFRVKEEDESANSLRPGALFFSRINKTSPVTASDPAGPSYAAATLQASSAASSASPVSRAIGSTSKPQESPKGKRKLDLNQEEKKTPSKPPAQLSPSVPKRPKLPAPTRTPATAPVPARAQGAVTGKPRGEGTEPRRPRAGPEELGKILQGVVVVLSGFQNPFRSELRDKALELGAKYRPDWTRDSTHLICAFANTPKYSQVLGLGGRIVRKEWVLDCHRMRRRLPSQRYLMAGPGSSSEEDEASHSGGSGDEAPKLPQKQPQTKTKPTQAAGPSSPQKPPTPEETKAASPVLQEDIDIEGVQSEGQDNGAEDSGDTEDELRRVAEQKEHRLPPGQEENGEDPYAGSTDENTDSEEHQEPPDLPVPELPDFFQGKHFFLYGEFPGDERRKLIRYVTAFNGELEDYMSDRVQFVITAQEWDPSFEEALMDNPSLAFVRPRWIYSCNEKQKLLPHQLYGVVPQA

Legend:
Assay in all cases: proximity ligation; Duolink PLA in fixed HeLa 1.2.11 cells with antibodies to the endogenous proteins, against single antibody controls; untreated or 200 μM H2O2 for 2 h before fixation
[1] = target: PARP1, endogenous (human (endogenous in HeLa)) (UniProt P09874)
[2] = target: 8-oxo-guanine glycosylase (OGG1), endogenous (human (endogenous in HeLa and HEK293T)) (UniProt O15527)
[3] = target: XRCC1, endogenous (human (endogenous in HeLa)) (UniProt P18887)

Measured: binding

B1: STN1, endogenous (protein, UniProt Q9H668 1-368)
chain: MQPGSSRCEEETPSLLWGLDPVFLAFAKLYIRDILDMKESRQVPGVFLYNGHPIKQVDVLGTVIGVRERDAFYSYGVDDSTGVINCICWKKLNTESVSAAPSAARELSLTSQLKKLQETIEQKTKIEIGDTIRVRGSIRTYREEREIHATTYYKVDDPVWNIQIARMLELPTIYRKVYDQPFHSSALEKEEALSNPGALDLPSLTSLLSEKAKEFLMENRVQSFYQQELEMVESLLSLANQPVIHSASSDQVNFKKDTTSKAIHSIFKNAIQLLQEKGLVFQKDDGFDNLYYVTREDKDLHRKIHRIIQQDCQKPNHMEKGCHFLHILACARLSIRPGLSEAVLQQVLELLEDQSDIVSTMEHYYTAF
binds: [1] | [2] | [3]
